The source of these data is paper PMC4336329 (PLoS ONE, 2015).

The whole screen tested about 310,000 compounds, of which about 14,000 (4.5%) showed an effect of 50% or more. Effects have a minus sign here. Some of the results follow.
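Note: peak tail current of the secondary pulse compared with the same well before compound.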

In this assay the target is human ether-à-go-go-related gene (hERG) potassium channel (human, UniProt Q12809). As to the kind of experiment: primary screen, population patch clamp on CHO cells stably expressing hERG.
Sequence of human ether-à-go-go-related gene (hERG) potassium channel (Q12809 whole entry, looked up): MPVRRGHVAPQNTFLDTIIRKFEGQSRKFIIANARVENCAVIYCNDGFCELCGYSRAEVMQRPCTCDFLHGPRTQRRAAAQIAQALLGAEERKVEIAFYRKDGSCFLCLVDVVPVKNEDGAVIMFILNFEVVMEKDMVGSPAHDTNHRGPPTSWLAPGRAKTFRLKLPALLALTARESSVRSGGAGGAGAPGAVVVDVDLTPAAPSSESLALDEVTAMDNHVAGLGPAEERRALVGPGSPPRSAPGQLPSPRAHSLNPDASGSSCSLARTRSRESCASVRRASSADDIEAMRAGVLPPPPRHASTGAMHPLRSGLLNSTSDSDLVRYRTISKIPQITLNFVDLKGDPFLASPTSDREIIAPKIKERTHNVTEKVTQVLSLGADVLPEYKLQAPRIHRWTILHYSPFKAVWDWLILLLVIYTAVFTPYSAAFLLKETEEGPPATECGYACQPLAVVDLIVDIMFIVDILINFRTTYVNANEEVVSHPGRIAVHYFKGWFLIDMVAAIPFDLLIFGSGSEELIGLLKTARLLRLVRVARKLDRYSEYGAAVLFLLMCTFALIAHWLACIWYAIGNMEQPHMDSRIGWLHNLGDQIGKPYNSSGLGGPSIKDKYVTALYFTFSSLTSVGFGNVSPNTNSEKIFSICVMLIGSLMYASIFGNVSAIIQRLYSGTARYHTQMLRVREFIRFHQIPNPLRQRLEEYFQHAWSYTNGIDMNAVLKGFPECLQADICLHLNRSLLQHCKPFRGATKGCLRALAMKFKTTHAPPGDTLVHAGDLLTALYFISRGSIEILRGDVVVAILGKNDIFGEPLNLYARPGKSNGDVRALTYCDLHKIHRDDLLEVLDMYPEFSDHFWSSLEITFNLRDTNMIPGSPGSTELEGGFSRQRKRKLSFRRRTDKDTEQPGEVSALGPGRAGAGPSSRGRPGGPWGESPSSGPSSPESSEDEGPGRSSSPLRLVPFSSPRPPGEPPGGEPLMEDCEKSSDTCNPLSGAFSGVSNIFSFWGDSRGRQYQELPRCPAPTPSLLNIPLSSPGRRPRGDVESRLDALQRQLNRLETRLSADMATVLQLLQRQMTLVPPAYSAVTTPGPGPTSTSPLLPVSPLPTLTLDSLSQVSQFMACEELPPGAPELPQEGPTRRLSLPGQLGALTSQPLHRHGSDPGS
For the molecule `CC(=O)Nc1ccc(S(=O)(=O)N[C@@H](C)C(=O)N2CCN(c3ccccn3)CC2)cc1`, the “hERG current change (%, negative = inhibition) at 10uM” value was 11.1%.
The figure for `O=C(O)C1CCCCC1C(=O)NCc1ccccc1` (stereo not shown) is -3.52%.
The figure for `COc1ccccc1C1=NOC(CN2C(=O)c3ccccc3S2(=O)=O)C1` (stereo not shown) is -22.8%; for `CCOC(=O)c1c(NC(=O)OC)sc(C(=O)N(C)C)c1C` it is -9.46%; for `CN(CC(=O)Nc1ccccc1Cl)C(=O)COC(=O)c1ccc(=O)n(Cc2ccccc2)n1` it is -12.4%.
Next, `COc1cc(-c2nc(-c3cccnc3)no2)cc(OC)c1OC`: 16%; `CN(c1cccc(NS(=O)(=O)c2ccccc2)c1)S(C)(=O)=O`: 43.1%; `O=C(CSCc1ccccc1)Nc1ccc(Cl)cn1`: 8.76%.
For `O=C(CSc1nnnn1-c1ccccc1)NC(=O)Cc1ccccc1`, the “hERG current change (%, negative = inhibition) at 10uM” value came out at 8.05%.
The figure for `COc1cccc(/C=C/C(=O)NNC(=O)c2ccncc2)c1OC` is 11.4%; for `Cc1ccc(CN=c2c([N+](=O)[O-])nn(-c3ccc4c(c3)OCCO4)n2O)cc1` it is 5.68%.
As to `Cc1csc(NC(=O)C2CCN(C(=O)CSc3nnc(C)n3Cc3ccccc3)CC2)n1`, the “hERG current change (%, negative = inhibition) at 10uM” value was -15.1%.
As for `CS(=O)(=O)Oc1ccc(Br)c2cccnc12`, the “hERG current change (%, negative = inhibition) at 10uM” value is -11.7%.
Next, `C=CCn1c(SCC(=O)c2ccc(O)c(O)c2)nnc1-c1cccc(OC)c1`: 10.8%; `CCOC(=O)C1=C(N)N2C(=O)C(C)SC2=C(C(=O)OCC)C1c1cc(OC)c(OC)c(OC)c1` (stereo not shown): 1.27%.
Consider `CCOc1ccc(CN2CCNC(=O)C2CC(=O)NCc2ccccn2)cc1` (stereo not shown), for which the “hERG current change (%, negative = inhibition) at 10uM” value is listed as -12.8%.
As for `CCc1cc(=O)oc2cc(C)cc(OC(C)C(=O)NC3CCN(Cc4ccccc4)CC3)c12` (stereo not shown), the “hERG current change (%, negative = inhibition) at 10uM” value was -32.8%.
The figure for `Cc1cc(=O)[nH]c(SC(C)C(=O)Nc2cccc3ccccc23)n1` (stereo not shown) is 6.32%; for `CC(C)(C)Cc1nnc(NC(=O)c2ccc([N+](=O)[O-])cc2)s1` it is 1.57%.
The figure for `Cc1ccc(OC(=O)c2cccc(S(=O)(=O)N3CCN(C)CC3)c2)c(Br)c1` is -19.5%; for `Cc1ccc(/C=C/C(=O)Nc2cc(C)on2)cc1` it is 22.7%; for `CCOc1ccc(NC(=O)NCC2CCN(c3ccc(OC)cc3)C2)cc1` (stereo not shown) it is -7.35%.
Next, `O=C(CSc1nnnn1-c1ccc2c(c1)OCCO2)c1cccc2c1OCCO2`: -7%; `COc1ccc(CNC(=O)CSc2nnc3c(n2)[nH]c2ccccc23)cc1`: 12.7%; `Cc1nc(CSc2nsc(C)c2C#N)cs1`: 0.507%.
Consider `Cc1nn(CCC(N)=S)c2nc(-c3cccs3)cc(C(F)(F)F)c12`, for which the “hERG current change (%, negative = inhibition) at 10uM” value was determined as 7.77%.
Next, `Cc1ccc(OCCOCCN(C)C)c(Cl)c1.O=C(O)C(=O)O`: -15.6%; `CN(Cc1ccccc1)C(=O)CN1C(=O)COc2ccc(S(=O)(=O)N3CCCC3)cc21`: -19.4%; `NC(=O)c1ccccc1NC(=O)c1ccc2ccccc2c1`: 25.6%.
Next, `CC1Cn2c(CCc3ccccc3)nnc2S1` (stereo not shown): -10.9%; `COC(=O)c1sccc1NC(=O)CCC1CCCC1`: 3.48%.
With `CCOC(=O)c1c(CN(C)C)n(-c2ccccc2)c2cc(Br)c(OC)cc12`, the “hERG current change (%, negative = inhibition) at 10uM” value is reported as -58.6%.
As to `O=C(O)c1cccnc1Nc1ccc(Cl)cc1`, the “hERG current change (%, negative = inhibition) at 10uM” value came to 25%.
In the case of `COc1ccc(-c2cc(C(=O)Nc3ccc(C(N)=O)cc3)c3ccccc3n2)cc1`, the “hERG current change (%, negative = inhibition) at 10uM” value is on record as 10.3%.
Next, `COc1ccccc1NC(=O)COC(=O)CN1C(=O)C(=O)c2ccccc21`: 5.42%.
Next, `COC(=O)CN(C)C(=O)c1ccccc1OC1CCN(S(C)(=O)=O)CC1`: 14.4%.
For `OCC1OC(n2cnc3c(NCCc4ccccc4)ncnc32)C(O)C1O` (stereo not shown), the “hERG current change (%, negative = inhibition) at 10uM” value was determined as 27.8%.
Next, `Cc1nc(Cc2nnc(SC(C)C(=O)N3c4ccccc4NC(=O)C3(C)C)o2)cs1` (stereo not shown): -3.46%; `Fc1ccc(-c2cnc(-c3cccs3)o2)cc1`: 9.66%.
The figure for `CCOC(=O)C1(Cc2ccccc2)CCN(Cc2cnc(N3CCOCC3)s2)CC1` is -42.4%; for `NC(N)=Nc1nc(CCN2C(=O)c3ccccc3C2=O)cs1` it is 13.1%; for `COc1ccccc1OCc1ccc(C(=O)Nc2ccc(Cl)cn2)o1` it is -10.4%.
On to `NC(=Nc1ccc(Cl)cc1)c1ccccc1`, for which the “hERG current change (%, negative = inhibition) at 10uM” value is 0.791%.
Turning to `O=C(NNC(=O)c1cccc(O)c1)Nc1ccc([N+](=O)[O-])cc1`, the “hERG current change (%, negative = inhibition) at 10uM” value is on record as 16.3%.
The figure for `Cc1ccc2ncnc(NCCCN3CCOCC3)c2c1` is -13.6%.
Regarding `O=C(/C=C\Nc1ccc(S(=O)(=O)Nc2ncccn2)cc1)c1cccc2ccccc12`, the “hERG current change (%, negative = inhibition) at 10uM” value was -5.3%.
On to `CC1(C)CC2CC(C)(CN2CC(=O)C(C#N)c2ccccc2)C1` (stereo not shown), for which the “hERG current change (%, negative = inhibition) at 10uM” value came to 0.17%.
As for `O=C1Nc2ccc(F)cc2C12SCCS2`, the “hERG current change (%, negative = inhibition) at 10uM” value was found to be 12.8%.
On to `Cc1ccc(F)cc1NC(=O)CCc1c(C)[nH]c(=O)c(C#N)c1C`, for which the “hERG current change (%, negative = inhibition) at 10uM” value was 22.5%.
Consider `COc1cc(C(N)=O)cc(Cl)c1OCc1ccccc1`, for which the “hERG current change (%, negative = inhibition) at 10uM” value is reported as -1.84%.
Turning to `COc1ccc(N2CC(C(=O)N3CCN(Cc4ccc5c(c4)OCO5)CC3)CC2=O)cc1` (stereo not shown), the “hERG current change (%, negative = inhibition) at 10uM” value was -19%.
Next, `CC1(C)SC2c3ccccc3C(=O)N2[C@@H]1C(=O)NC1CC1` (stereo partly shown): 9.97%; `COc1ccc(C2/C(=C(/O)c3ccc(F)cc3)C(=O)C(=O)N2c2ccccn2)cc1OC` (stereo not shown): 10.8%; `O=C(NC(=S)Nc1ccccc1)c1ccc(-c2ccccc2)cc1`: 14.3%.
As for `C/C(=N\NC(=O)Cc1ccc(O)cc1)c1cccnc1`, the “hERG current change (%, negative = inhibition) at 10uM” value came to 21.5%.
Consider `COc1cc(/C=C2/C(=N)N3N=C(C)SC3=NC2=O)ccc1OS(=O)(=O)c1ccc(C)cc1`, for which the “hERG current change (%, negative = inhibition) at 10uM” value is recorded as 13.5%.
Regarding `Cc1cc(C)n(C(=O)CCCCCC(=O)n2nc(C)cc2C)n1`, the “hERG current change (%, negative = inhibition) at 10uM” value is reported as 2.47%.
The figure for `Cc1ccc(CN2C(=O)C(Cc3ccccc3)Nc3ncnc(N4CCN(c5ccccc5)CC4)c32)cc1.O=C(O)C(F)(F)F` (stereo not shown) is 9.85%.
The figure for `CC(=O)CSc1ncnc2scc(-c3ccc(F)cc3)c12` is 10.7%.
Take `CCOc1ccc(NC(=O)CS(=O)(=O)c2cn(C)c3ccccc23)cc1`: the “hERG current change (%, negative = inhibition) at 10uM” value is on record as 15.2%.
For the molecule `CCS(=O)(=O)Nc1cccc(-c2nc3cccnc3s2)c1C`, the “hERG current change (%, negative = inhibition) at 10uM” value came to 6.04%.
For `Cc1cnc(C(=O)OC(C(=O)c2c[nH]c3ccccc23)c2ccccc2)cn1` (stereo not shown), the “hERG current change (%, negative = inhibition) at 10uM” value is given as -25.3%.
The figure for `CCOC(=O)c1nnc2cc(-c3ccc(Br)cc3)nn2c1C` is 4%; for `CCNc1nc(NCC)nc(C(=O)OCCO)n1` it is 11.8%.
The figure for `Cc1cc(C)cc(-n2nnc(C(=O)NCc3ccccc3Cl)c2N)c1` is 7.98%; for `CCCCn1c(O)c(C(C)=Nc2ccc(C(=O)O)cc2)c(=O)[nH]c1=O` it is 12.1%.
For `COc1ccc(CNC(=O)C2CCN(S(=O)(=O)c3ccc(SC)cc3)CC2)cc1`, the “hERG current change (%, negative = inhibition) at 10uM” value stood at 15.4%.
In the case of `CCC1(C)Cc2c(C#N)c(SC)nc(N3CCOCC3)c2CO1` (stereo not shown), the “hERG current change (%, negative = inhibition) at 10uM” value was -28.9%.
Consider `CCC(=O)Nc1sc2c(c1C#N)CCCCC2`, for which the “hERG current change (%, negative = inhibition) at 10uM” value came out at 0.0585%.
On to `COc1cc(NC(=O)C2CC(c3ccccc3O)=NO2)c(OC)cc1Cl` (stereo not shown), for which the “hERG current change (%, negative = inhibition) at 10uM” value came to 13.8%.
The figure for `COc1cccc(CN2CCSCC2)c1` is 8.81%; for `CCOCc1nnc(NC(=O)C2CCN(C(=O)C3CC(=O)N(c4ccc(C)cc4)C3)CC2)s1` (stereo not shown) it is 7.93%; for `Cc1noc(C)c1CSCC(=O)OCC(=O)NC1CCCCC1` it is 12.5%.
`COc1cc2cc(C(c3nnnn3C(C)(C)C)N3CCc4ccccc4C3)c(=O)[nH]c2cc1OC` (stereo not shown): the “hERG current change (%, negative = inhibition) at 10uM” value was -23.2%.
The figure for `COCCC(=O)N1CCC(Oc2ccc(C(=O)NC(C)CCn3cccn3)cc2)CC1` (stereo not shown) is 31.8%.
Consider `COC(=O)c1ccc([N+](=O)[O-])c(CS(=O)(=O)c2ccc(Cl)cc2)c1`, for which the “hERG current change (%, negative = inhibition) at 10uM” value is -29.6%.
Next, `CC(c1ccccc1)N1C(=O)C2C3CCC(C3)C2C1=O` (stereo not shown): 11.1%; `COc1cc(/C=N/n2cnnc2-n2nc(C)cc2C)cc([N+](=O)[O-])c1O`: -20.3%; `O=C(O)C1C2C=CC(O2)C1C(=O)NCc1ccc2c(c1)OCO2` (stereo not shown): 15.3%.
For `CCOC(=O)C1CCCN(C(=O)c2ccc3oc(Cc4ccccc4)nc3c2)C1` (stereo not shown), the “hERG current change (%, negative = inhibition) at 10uM” value is -42.6%.
The figure for `COCCCNC(=O)c1ccc([N+](=O)[O-])c(Cl)c1` is -0.841%.
In the case of `Cc1ccc(NC(=O)Cn2nc(C)cc2C)cc1`, the “hERG current change (%, negative = inhibition) at 10uM” value is 11.6%.
With `COC(=O)c1ccc(C23CC4(C2)[C@H](CN(Cc2ccc(-c5ccccc5)cc2)[C@@H]4c2ccccc2)C3c2ccc(Cl)nc2)cc1` (stereo partly shown), the “hERG current change (%, negative = inhibition) at 10uM” value is given as -5.37%.
Next, `CC1(C)C(=O)Nc2ccccc2N1C(=O)COC(=O)Cc1c(F)cccc1Cl`: -50.1%; `O=S(=O)(Nc1nc2ccccc2nc1N1CCN(c2ccccc2)CC1)c1ccc(F)cc1`: 9.01%; `Cc1ccccc1C(=O)/C=C1\NC(=O)CS1`: -0.633%.
As to `O=C(Nc1ccc2c(c1)CCC2)C1CCCN(c2ncccn2)C1` (stereo not shown), the “hERG current change (%, negative = inhibition) at 10uM” value is listed as -2.53%.
The figure for `COCCNC(=O)c1ccc(CS(=O)(=O)c2ccc(C)cc2)o1` is -19.7%.
